# Assay results published in the supplement of paper PMC9446081.
# About 220 (0.56%) of roughly 39,000 compounds showed activity. The list shows a part of the results.
# Tested on: Escherichia coli K-12 BW25113
# Experiment: relative growth (OD600 normalised to plate interquartile mean) (fraction); higher = less growth inhibition, active = 0.2 or less
# Settings: 50 µM; LB; incubation time: overnight (16-24 h)
# 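Also: static incubation at 37 °C against the wild-type strain, values averaged over two biological replicates.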
row,SMILES,relative growth
1,C[C@H]1CN([C@@H](C)CO)C(=O)CCCn2cc(nn2)CO[C@H]1CN(C)C(=O)Nc1ccc2c(c1)OCO2,inactive: 1
2,CO[C@H]1CN(C)C(=O)c2cc(NC(=O)NC(C)C)ccc2OC[C@@H](C)N(Cc2ccc(-c3ccccn3)cc2)C[C@@H]1C,inactive: 1
3,O=C(C[C@H]1CC[C@H]2[C@@H](COC[C@@H](O)CN2S(=O)(=O)c2ccc(Cl)cc2)O1)NCCN1CCCCC1,inactive: 1
4,COc1cccc(-c2ccc3c(c2)O[C@H](CN(C)C(=O)C2CC2)[C@H](C)CN([C@@H](C)CO)S3(=O)=O)c1,inactive: 1
5,COCCN1C[C@H]2CN(Cc3cnn(C)c3)C[C@H]2C1=O,inactive: 0.991
6,C[C@@H]1CN([C@@H](C)CO)C(=O)c2cc(C#CCN(C)C)cnc2O[C@@H]1CN(C)C(=O)c1cnccn1,inactive: 0.996
7,C[C@@H]1CCCCO[C@H](CN(C)C(=O)Cc2ccccc2)[C@@H](C)CN([C@@H](C)CO)C(=O)c2cc(NS(=O)(=O)c3ccc(F)cc3)ccc2O1,inactive: 1.02
8,Cc1noc(C)c1NC(=O)Nc1ccc2c(c1)CC(=O)N([C@@H](C)CO)C[C@@H](C)[C@H](CN(C)Cc1ccc(-c3ccccc3)cc1)O2,inactive: 0.894
9,COc1ccc(S(=O)(=O)Nc2ccc3c(c2)C(=O)N([C@H](C)CO)C[C@H](C)[C@H](CN(C)Cc2ccc4c(c2)OCO4)OCCCC[C@H](C)O3)cc1,inactive: 1
10,O=C(CN1CCOCC1)N[C@H]1CC[C@@H](CCNC(=O)Nc2cc(F)ccc2F)O[C@@H]1CO,inactive: 0.995
11,C[C@@H]1CN([C@@H](C)CO)C(=O)c2cccc(NC(=O)c3cnccn3)c2O[C@H]1CN(C)C(=O)Nc1ccc(F)cc1,inactive: 0.997
12,C[C@@H]1CCCCO[C@@H](CN(C)C(=O)NC2CCCCC2)[C@@H](C)CN([C@@H](C)CO)C(=O)c2cc(NC(=O)Cc3ccccc3)ccc2O1,inactive: 1.01
13,COc1ccccc1C(=O)Nc1ccc2c(c1)C(=O)N(C)[C@H]1CC[C@H](CC(=O)Nc3cccc(C(C)C)c3)O[C@@H]1CO2,inactive: 1.03
14,C[C@H]1CN([C@@H](C)CO)C(=O)Cc2cc(NC(=O)Nc3ccc(C(F)(F)F)cc3)ccc2O[C@@H]1CN(C)Cc1ccc(C(F)(F)F)cc1,inactive: 1.02
15,Cc1ccc(S(=O)(=O)Nc2ccc3c(c2)C(=O)N([C@@H](C)CO)C[C@H](C)[C@H](CN(C)C(=O)Nc2cccc4ccccc24)OCCCC[C@H](C)O3)cc1,inactive: 1.03
16,CC(C)C#Cc1cnc2c(c1)C(=O)N([C@H](C)CO)C[C@@H](C)[C@@H](CN(C)S(=O)(=O)c1cn(C)cn1)O2,inactive: 0.99
17,CC(=O)CCCCn1c(=O)c2c(ncn2C)n(C)c1=O,inactive: 1.12
18,Cc1ccc(N2NC(=O)/C(=N/O)C2=O)cc1C,inactive: 0.968
19,COc1ccc(NC(=O)Nc2ccc3c(c2)C(=O)N([C@H](C)CO)C[C@H](C)[C@H](CN(C)Cc2ccc4c(c2)OCO4)OCCCC[C@@H](C)O3)cc1,inactive: 0.949
20,CCS(=O)(=O)Nc1ccc2c(c1)C(=O)N(C)[C@H]1CC[C@H](CC(=O)NCc3ccc(OC)cc3)O[C@@H]1CO2,inactive: 0.983
21,O=C(C[C@@H]1C[C@@H]2c3cc(NC(=O)Nc4ccc(C(F)(F)F)cc4)ccc3O[C@@H]2[C@@H](CO)O1)NCc1cc(F)ccc1F,inactive: 0.995

row,SMILES,relative growth
1,C[C@@H]1CN([C@@H](C)CO)C(=O)Cc2cc(NC(=O)Cn3cnnn3)ccc2O[C@H]1CN(C)S(=O)(=O)c1cn(C)cn1,inactive: 1
2,C[C@H]1CN([C@@H](C)CO)C(=O)c2cc(NS(=O)(=O)c3cn(C)cn3)ccc2O[C@H]1CN(C)C(=O)Nc1ccccc1,inactive: 0.988
3,C[C@@H]1CN([C@@H](C)CO)C(=O)Cc2cc(NS(=O)(=O)c3cccs3)ccc2O[C@H]1CN(C)Cc1ccc(Oc2ccccc2)cc1,inactive: 0.976
4,O=C(N[C@@H]1CC[C@H](CC(=O)N2CCOCC2)O[C@@H]1CO)c1ccc2c(c1)OCO2,inactive: 1.02
5,CNC[C@@H]1OCCCC[C@@H](C)Oc2ccc(NS(=O)(=O)c3cn(C)cn3)cc2C(=O)N([C@@H](C)CO)C[C@H]1C,inactive: 0.971
6,CNC(=O)Cn1cc(N)cn1,inactive: 0.998
7,O=C(C[C@@H]1CC[C@@H]2[C@H](COC[C@@H](O)CN2S(=O)(=O)c2ccccc2Cl)O1)NCCc1ccncc1,inactive: 0.98
8,C#Cc1ccc([C@H]2C=C(C(=O)N3CCOCC3)O[C@@H](OCCCCOC(=O)NCCCCCC(=O)NO)C2)cc1,inactive: 0.931
9,Cc1noc(C)c1S(=O)(=O)Nc1ccc2c(c1)C(=O)N([C@@H](C)CO)C[C@H](C)[C@H](CN(C)S(=O)(=O)c1ccc(F)cc1)O2,inactive: 1.02
10,COc1cccc(OC)c1C(=O)O[C@H]1[C@@H]2OC(=O)[C@H](Cc3cccc(Br)c3)C/C=C/C[C@@H](Cc3cccc(Br)c3)C(=O)O[C@H]2[C@@H](OC)O[C@@H]1CO,inactive: 0.987
11,Cc1noc(C)c1NC(=O)Nc1ccc2c(c1)C(=O)N([C@H](C)CO)C[C@@H](C)[C@H](CN(C)S(=O)(=O)c1ccccc1)O2,inactive: 0.99
12,O=c1n(-c2ccc(F)cc2)nc2n1CCCN2,inactive: 0.97
13,Cc1noc(C)c1NC(=O)Nc1ccc2c(c1)CC(=O)N([C@@H](C)CO)C[C@H](C)[C@@H](CN(C)S(C)(=O)=O)O2,inactive: 0.993
14,Cc1cc(C)c2[nH]c3ccccc3c2n1,inactive: 0.879
15,CC12CCC(=O)C=C1C=CC1C2CCC2(C)C1CCC21CCC(=O)O1 (stereo unspecified),inactive: 1.18
16,O=c1c(-c2ccc(O)cc2)coc2cc(O)ccc12,inactive: 0.967
17,NC(=O)N1CCC[C@H](C(=O)O)C1,inactive: 0.99
18,COC(=O)CCC(C)C1CCC2C3CCC4CC(O)CCC4(C)C3CC(O)C12C (stereo unspecified),inactive: 1.01
19,CCn1cc(C2=NO[C@H](C(=O)O)C2)c(C)n1,inactive: 1.02
20,Cc1ccccc1S(=O)(=O)N(C)C[C@@H]1Oc2ccc(NC(=O)Nc3cccc(C(F)(F)F)c3)cc2CC(=O)N([C@@H](C)CO)C[C@@H]1C,inactive: 0.975
